Laboratory results: PubChem BioAssay AID686979 (National Center for Advancing Translational Sciences (NCATS), 2013)
Screen size: about 420,000 compounds; about 50,000 (12%) were called active. The shares of active, inactive and inconclusive entries below differ from those in the screen. Calls follow the shape of the dose curve; as a rule, active = well fitted inhibition curve with a large enough effect; inconclusive = small, poorly fitted or top-dose-only effect; inactive = flat fitted curve, though single readings scatter. No potency is given beside an inconclusive call; the fits are too rough.

Test: qHTS for Inhibitors of human tyrosyl-DNA phosphodiesterase 1 (TDP1): qHTS in cells in presence of CPT; also: nearly all actives have a fitted effect of over 55% in size
Conditions: chicken DT40 Tdp1-/-;hTDP1 cells + 20 nM CPT, ATP luminescence, 48 h; activity change, negative = growth inhibition: at 46.2 µM (top of the series)
Summary of the method: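 Chicken DT40 Tdp1-/- cells complemented with human TDP1, 400 cells/well, exposed to compounds plus 20 nM camptothecin for at least 48 h at 37 C; viability read as ATP content by CellTiter-Glo luminescence.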
% is scaled to controls: 0 for no effect and ±100 for the full control effect; potency is read from the fitted curve at half-maximal effect; tags tell the direction and shape of the fitted curve.

| SMILES | Potency | activity change, negative = growth inhibition |
| --- | --- | --- |
| COc1ccc(OC)c(NC(=O)c2cc3c(n(-c4ccc(Cl)cc4)c2=O)CC(C)(C)CC3=O)c1 | inconclusive [inhibitor, single point] | – |
| Cc1cccc(NC(=O)C2C3CCC4C(CCC32)C4(Cl)Cl)c1 (stereo not drawn) | inconclusive [inhibitor, single point] | – |
| CC(C)(C)N=C1C([N+](=O)[O-])=CC=C2C1=NC1(CCCCC1)N2O | inconclusive [inhibitor, partial curve] | – |
| CCN(Cc1ccncc1)C(=O)c1cccc(S(=O)(=O)N2CCCCC2)c1 | – | inactive: -8.06% |
| Cc1ccc(S(=O)(=O)N[C@@H](CC(C)C)C(=O)N2CCC(C(=O)N[C@@H](Cc3ccccc3)C(=O)O)CC2)cc1 | inconclusive [inhibitor, partial curve, poor fit] | – |
| CCN(CC)CCSc1nnc2c3cc(F)ccc3n(Cc3ccccc3)c2n1 | inconclusive [inhibitor, single point] | – |
| COC(=O)[C@@H]1CCCN1Cc1ccc2c(c1)CN(Cc1cccn1-c1ncccn1)CCO2 | inconclusive [inhibitor, full curve, poor fit] | – |
| c1ccc(-c2csc3ncnc(NCCN4CCOCC4)c23)cc1 | active: 11.6 µM | – |
| O=S(=O)(c1ccc(S(=O)(=O)N2CCN3CCCC3C2)cc1)N1CCCC1 (stereo not drawn) | – | inactive: -13.5% |
| CCC(C)(C)n1nnnc1CN1CCN(c2ccc(OC)cc2)CC1 | – | inactive: -19.5% |
| CCN(CC)CCSC(=O)C(c1ccccc1)c1ccccc1 | inconclusive [inhibitor, single point] | – |
| Cc1nc2sccn2c1CN1CCC2(CC1)CC2C(=O)Nc1ccc2c(c1)OCO2 (stereo not drawn) | – | inactive: -2.49% [at 9.04 µM] |
| COc1cccc(-c2nn(C)c3sc(C(=O)NCc4cc(OC)ccc4OC)cc23)c1 | inconclusive [inhibitor, single point] | – |
| O=C(NC12CC3CC(CC(C3)C1)C2)c1ccc(-c2ccc(Br)cc2)o1 | active: 23.1 µM | – |
| O=[N+]([O-])c1cc(/C=N/NC(=S)Nc2ccccc2Cl)ccc1Cl | inconclusive [inhibitor, partial curve, poor fit] | – |
| O=C(NC1CC1)c1cccc(Nc2ccc(-c3ccc4c(c3)OCCO4)nn2)c1 | active: 20.6 µM | – |
| S=C(Nc1cccc2ccccc12)NC1CCCCC1 | inconclusive [inhibitor, single point] | – |
| CCn1c(/C=C/c2ccc(F)cc2)nc2ccccc2c1=O | inconclusive [inhibitor, single point] | – |
